System: Jurkat cells
Test: Split DHFR complementation assay, methotrexate selection of Jurkat cells expressing DHFR fragment fusion proteins
Format: cell-based, human
Settings: 0.2 μM methotrexate, two weeks; rimiducid 100 nM for FKBP12.6tr pair
Source text: The truncated version of FKBP12.6 carrying the F36V substitution (SEQ ID NO: 192) was fused at its carboxy terminus to the two fragments of murine DHFR as in Example 1, with one of the fragments bearing the L22F and F31S substitutions to confer methotrexate resistance (SEQ ID NOs: 190 and 191).
As a control, the P7A/P8A pair of DHFR fragment fusion proteins (involving SEQ ID Nos: 188 and 189) was also used. Whereas the P7A/P8A pair of constructs co-expressed the DHFR fragments with a red fluorescent protein (RFP; plobRFP) or a blue fluorescent protein (BFP; mTagBFP2), both FKBP12.6 tr transposons carried a BFP transgene.
Jurkat cells were co-transfected by electroporation (ThermoFisher Neon; 100 μl tips; 1350V, three 10 ms pulses) with pairs of plasmids carrying transposons encoding the two DHFR fragments (7.5 μg of each) together with mRNA encoding the Leap-In Transposase® enzyme (2 μg). The cells were plated in RPMI-1640 medium supplemented with fetal bovine serum (10% vol/vol) and methotrexate (0.2 μM). Rimiducid at 100 nM was added to the medium of cells that had been transfected with the FKBP12.6tr pair of plasmids.
At left is the result for cells expressing the DHFR fragments fused to the P7A/P8A heterodimerizing coiled-coil peptides. […] Untransfected cells were analyzed under identical conditions as a control (at right).

B1: FKBP12.6tr_F36V-based fusion proteins: truncated FKBP12.6 carrying F36V fused at its carboxy terminus to the two fragments of murine DHFR (protein)
chain 1: [about 100 residues omitted here]SGGGSVRPLNCIVAVSQNMGIGKNGDFPWPPLRNESKYFQRMTTTSSVEGKQNLVIMGRKTWFSIPEKNRPLKDRINIVLSRELKEPPRGAHFLAKSLDDALRLIEQPEL
chain 2: [about 100 residues omitted here]SGGGSASKVDMVWIVGGSSVYQEAMNQPGHLRLFVTRIMQEFESDTFFPEIDLGKYKLLPEYPGVLSEVQEEKGIKYKFEVYEKKD
methotrexate resistance / survival of transfected cells: allowed survival in the presence of methotrexate

Reference: patent US20250207109A1, “ENGINEERED SPLIT DHFR-BASED METHODS AND SYSTEMS FOR SELECTING CELLS THAT HAVE STABLY ACQUIRED A HETEROLOGOUS POLYNUCLEOTIDE” (DNA Twopointo, Inc., priority 2022, published 2025)
